Measured values: the supplement of paper PMC3334620
The full ranking holds about 33,000 sequences; the median of “E-score (-0.5 to 0.5)” is about -0.021, and the highest 2% start at about 0.32. The list shows a part of the results.

target: T1, Zap1 (UniProt P47043); assay: PBM E-score (8-mer binding enrichment) (E-score (-0.5 to 0.5)); higher = stronger / more preferred TF binding; most listed sequences are background and not binding sites; details: protein concentration: 200 nM; construct: GST-full length
T1 sequence: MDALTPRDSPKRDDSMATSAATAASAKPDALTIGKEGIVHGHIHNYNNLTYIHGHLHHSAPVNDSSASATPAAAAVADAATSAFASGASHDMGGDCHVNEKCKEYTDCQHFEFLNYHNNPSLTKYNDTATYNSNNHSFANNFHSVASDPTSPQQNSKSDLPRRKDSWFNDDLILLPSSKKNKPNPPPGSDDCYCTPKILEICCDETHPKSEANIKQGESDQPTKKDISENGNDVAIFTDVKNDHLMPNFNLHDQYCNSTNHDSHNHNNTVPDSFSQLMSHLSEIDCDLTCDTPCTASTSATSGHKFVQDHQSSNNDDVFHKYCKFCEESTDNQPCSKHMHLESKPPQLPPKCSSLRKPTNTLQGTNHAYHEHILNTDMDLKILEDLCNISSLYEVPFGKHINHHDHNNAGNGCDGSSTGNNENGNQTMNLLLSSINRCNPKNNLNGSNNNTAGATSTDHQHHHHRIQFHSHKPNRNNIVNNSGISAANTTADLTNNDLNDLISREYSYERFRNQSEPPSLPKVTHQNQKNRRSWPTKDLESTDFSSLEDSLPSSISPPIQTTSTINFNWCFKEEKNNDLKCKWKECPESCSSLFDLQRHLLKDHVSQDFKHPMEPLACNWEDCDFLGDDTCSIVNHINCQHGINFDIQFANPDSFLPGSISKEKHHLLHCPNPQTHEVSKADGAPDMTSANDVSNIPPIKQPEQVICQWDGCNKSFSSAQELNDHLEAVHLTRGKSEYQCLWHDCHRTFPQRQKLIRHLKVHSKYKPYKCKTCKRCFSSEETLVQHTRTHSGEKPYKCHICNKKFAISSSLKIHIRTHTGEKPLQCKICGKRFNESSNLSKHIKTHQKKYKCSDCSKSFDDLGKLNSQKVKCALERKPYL
How it was run: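 Universal all-10-mer Agilent arrays, fresh or stripped once, were converted to double-stranded form by primer extension. GST-tagged yeast transcription factors from PURExpress in vitro transcription/translation, full-length or DNA-binding domain only, were applied at about 100-200 nM and detected with fluorescent anti-GST. After masliner normalisation, the Universal PBM Analysis Suite scored each ungapped eight-base word together with its reverse complement by E-score.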

Sequence | PBM E-score
AACTTACT | -0.0256
TCATCTCA | -0.0211
CCGATGTC | -0.0474
CAGCTAAC | -0.0775
ACACTGGG | -0.14
ATATCTTA | 0.106
GCCGGCAA | -0.00777
ACCTAGGA | 0.159
AAAGGGAG | -0.17
CTATTGTA | 0.062
CGCTTGTA | -0.0149
GAGTCACC | 0.0467
ATAATTTA | 0.18
AGAAGACT | -0.205
ACGTCCAG | -0.256
CATTTGCG | -0.0445
AGTGCGAA | -0.172
CTAGCCAA | 0.00097
ATCCCTCA | -0.0235
AATACTCT | 0.11
TACGTTAA | 0.11
AGAATCTC | -0.0812
CGTACCCA | -0.0471
GCTCATTA | -0.0205
GTTGGAAA | -0.045

Sequence | PBM E-score
ATTACGGC | -0.0589
ATAGGAAC | 0.0152
GGTATACA | 0.125
CCGGCCCG | -0.0444
AAACAGAG | -0.0876
ATACCTTG | 0.256
AGGCATAT | -0.184
GGGTTCCA | 0.113
ACTGCAGG | -0.025
GAGCCCTC | -0.216
CTTCAAGC | -0.0804
GTGCTATA | -0.0354
CAGAGTTA | 0.0742
CGACCGTA | -0.0373
CCACCCGA | 0.224
ACGATTGA | -0.0728
ATAAGCCC | -0.193
GGATACGA | -0.0671
ATGATAAA | 0.197
CATCTAGG | 0.0237
CCTAATAA | 0.163
CTTCGTAA | -0.0447
CCCCAAAA | 0.198
ATATACGG | -0.0743
CCTCAGGA | -0.104

Sequence | PBM E-score
ACTGGGTG | 0.0162
AAAACCCA | 0.258
GCTCGCAA | 0.0398
ACTCTTTC | -0.066
ATCTAGAA | 0.105
CCTTCTGA | 0.0258
CAGGCCTG | -0.125
CGCAGGGA | -0.102
ACTCGATG | 0.0275
AGTGTAGA | -0.103
TACCCCTA | 0.366
ATATCAAA | 0.12
TAGATCTA | 0.0161
AGCCGTTC | -0.31
GGTCGGAC | -0.0817
CGCAAGCG | -0.256
CTGCATTC | -0.0625
CAACACAC | -0.0928
AAGTCGTC | -0.287
GACAGAGC | -0.235
GCTACCCA | 0.204
AACTGGGA | -0.146
AGAGGGTC | 0.213
AAAAAGGG | 0.243
AGGGAAAA | -0.133

Sequence | PBM E-score
ACTTACCG | 0.0716
GGAGGCAC | -0.0954
CACCTGTA | -0.0421
ATACAAAG | 0.181
ACACAACG | 0.00992
ACTAGACC | 0.137
AACTCGCC | -0.0341
AATCATTC | 0.0432
ATCGGTGC | -0.124
GCACACGA | 0.122
CGAGGGCA | -0.165
ATCGCTAA | 0.134
GAATAGAA | 0.133
AGACCGAA | 0.0806
CTGCTAAG | -0.177
ACGCATGG | -0.0943
GATATCGC | 0.209
ACGTACGG | -0.058
GTGGGTCA | 0.211
AAGGCAGT | -0.162
AAGGCATA | -0.205
AAGCCGTA | -0.0372
GTCTCCTA | -0.241
TGCTAGAA | -0.0712
CTGAGGCC | -0.182

Sequence | PBM E-score
ACAAAGAA | 0.178
GAATAAGC | -0.182
GATAATGC | 0.0945
GATCGGAA | -0.183
ATTAACTG | 0.197
CGTGACGC | -0.134
CAAACCCC | 0.0296
AATCAGCT | 0.0895
AACAGCGT | -0.216
CGAATAAA | 0.0809
CGAGGCAA | 0.121
TCACTCGA | -0.122
AGGCACAG | -0.0255
ATCGGTAA | 0.0416
AGCCTTGA | 0.0355
AGTTGCTA | 0.128
CAGACACA | 0.0649
CTAGGGTC | 0.309
CACGGGCG | -0.119
GCTGGCCA | 0.049
CCTACTTA | 0.0226
ACAGACAA | 0.227
AAGTCTCT | -0.222
AGACGGGC | -0.112
ATCTACAG | 0.0926

Sequence | PBM E-score
GAGCTCAC | -0.231
CAATGTGA | -0.0805
ACGGATTC | -0.116
TATGCGGA | 0.00182
CGCACGCA | -0.215
GTATTTCA | 0.206
CAGGGACA | -0.00957
AGCTCGGA | -0.325
CACCCCAC | 0.249
AGTGTTGG | -0.114
CAACTACG | -0.0266
CGAGTACG | -0.241
GAGGCGCC | -0.197
CGTTGTTA | 0.102
TAGGAAGA | -0.0483
AAATATCG | 0.094
CGCTGGGA | -0.234
ACCAAGGT | 0.24
TCTGTAAA | 0.00251
ACCATCCT | -0.113
ATTGAGCC | -0.21
CCTCCTAA | -0.184
CATAAAGG | 0.174
CAGTTTGC | -0.0408
CAGTCTCC | -0.289

Sequence | PBM E-score
GATAGACC | 0.12
ATAAAAAC | 0.203
CACCAGGC | -0.157
TAAGTAGA | -0.0981
TATAAGGA | 0.192
CACCTAAG | 0.138
CCCTTCAG | 0.122
CACCGATA | 0.137
ATCTCAGA | -0.108
AGTTATGG | 0.198
ATGATGCC | -0.144
ATTCACGC | -0.208
GACTACGA | 0.0134
GATGTACC | 0.133
GAAGCCCA | -0.257
AACCGGGC | -0.143
CCGGTGCA | -0.0328
AGCTGTAA | -0.00885
CCTTTGAG | 0.16
CTCATATC | -0.238
CCGGCAGG | -0.0284
TATGGTCA | 0.296
